Lines with a small IC50 respond at low doses; a fit beyond the top or the lowest dose is shown as a bound at that dose. For AUC the same curve is integrated over the 256-fold range of doses and scaled to a fraction: 1 means no effect, lower means more sensitive. For some of these results: An inferred top dose was calculated from the reported fits.
Legend:
Experiment in all cases: Viability of human cancer cell lines after 72 h of drug (GDSC screen)
OSI-027 = compound: COc1cccc2cc(-c3nc([C@H]4CC[C@H](C(=O)O)CC4)n4ncnc(N)c34)[nH]c12 [OSI-027]; settings: top dose 20 µM
Procedure: (§1)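 Human cancer cell lines in 384-well plates, medium with 10% serum, drug for 72 h over a 256-fold dose range (nine 2-fold or five 4-fold steps up to the top dose). Adherent lines were fixed and stained with the nucleic acid dye Syto60, suspension lines read with resazurin; signal relative to control wells, capped at 0 and 100%. One two-parameter sigmoid per drug and line, fitted in a mixed model over all curves with the slope shared within a line.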

BIX02189 = compound: CN(C)Cc1cccc(N=C(c2ccccc2)c2c(O)[nH]c3cc(C(=O)N(C)C)ccc23)c1 [BIX02189]; settings: top dose 20 µM; top dose inferred
Procedure: as §1

CCT018159 = compound: CCc1cc(-c2n[nH]c(C)c2-c2ccc3c(c2)OCCO3)c(O)cc1O [CCT018159]; settings: top dose 10 µM; top dose inferred
Procedure: as §1

BMX-IN-1 (QL-XII-61) = compound: C=CC(=O)Nc1cc(-n2c(=O)ccc3cnc4ccc(-c5ccc(NS(C)(=O)=O)cc5)cc4c32)ccc1C [BMX-IN-1 (QL-XII-61)]; settings: top dose 10 µM; top dose inferred
Procedure: as §1

UNC1215 = compound: O=C(c1ccc(C(=O)N2CCC(N3CCCC3)CC2)c(Nc2ccccc2)c1)N1CCC(N2CCCC2)CC1 [UNC1215]; settings: top dose 1 µM; top dose inferred
Procedure: as §1

17-AAG = compound: C=CCNC1=C2C[C@@H](C)C[C@H](OC)[C@H](O)[C@@H](C)/C=C(\C)[C@H](OC(N)=O)[C@@H](OC)/C=C\C=C(/C)C(=O)NC(=CC1=O)C2=O [17-AAG]; settings: top dose 1 µM
Procedure: as §1

VX-11e = compound: Cc1cnc(Nc2ccc(F)cc2Cl)nc1-c1c[nH]c(C(=O)N[C@H](CO)c2cccc(Cl)c2)c1 [VX-11e]; settings: top dose 5.12 µM; top dose inferred
Procedure: as §1

Dimethyloxalylglycine = compound: COC(=O)CNC(=O)C(=O)OC [Dimethyloxalylglycine]; settings: top dose 4000 µM; top dose inferred
Procedure: as §1

Vismodegib = compound: CS(=O)(=O)c1ccc(C(=O)Nc2ccc(Cl)c(-c3ccccn3)c2)c(Cl)c1 [Vismodegib]; settings: top dose 10 µM; top dose inferred
Procedure: as §1

TG101348 = compound: Cc1cnc(Nc2ccc(OCCN3CCCC3)cc2)nc1Nc1cccc(S(=O)(=O)NC(C)(C)C)c1 [TG101348]; settings: top dose 10.24 µM
Procedure: as §1

Cell Line	AUC (OSI-027)	IC50 (OSI-027) [µM]	AUC (BIX02189)	IC50 (BIX02189) [µM]	AUC (CCT018159)	IC50 (CCT018159) [µM]	AUC (BMX-IN-1 (QL-XII-61))	IC50 (BMX-IN-1 (QL-XII-61)) [µM]	AUC (UNC1215)	IC50 (UNC1215) [µM]	AUC (17-AAG)	IC50 (17-AAG) [µM]	AUC (VX-11e)	IC50 (VX-11e) [µM]	AUC (Dimethyloxalylglycine)	IC50 (Dimethyloxalylglycine) [µM]	AUC (Vismodegib)	IC50 (Vismodegib) [µM]	AUC (TG101348)	IC50 (TG101348) [µM]
CHP-212 (neuroblastoma, adherent)	0.867	15.7	0.984	> 20	0.893	> 10	0.973	> 10	0.987	> 1	0.447	0.0452	0.981	> 5.12	0.468	205	0.972	> 10	0.809	4.84
SW626 (ovary, adherent)	0.452	0.901	0.941	> 20	0.925	> 10	0.961	> 10	0.981	> 1	0.736	0.339	0.793	2.84	0.785	2060	0.976	> 10	0.891	> 10.2
NCI-H82 (small cell lung carcinoma, suspension)	0.814	10.2	0.974	> 20	0.988	> 10	0.971	> 10	0.986	> 1	0.985	> 1	0.989	> 5.12	0.851	2830	0.97	> 10	0.942	> 10.2
RKO (large intestine, adherent)	0.564	1.84	0.949	> 20	0.838	6.08	0.985	> 10	0.987	> 1	0.622	0.132	0.654	0.826	0.794	1690	0.983	> 10	0.904	> 10.2
TK10 (kidney, adherent)	0.518	1.42	0.887	> 20	0.914	> 10	0.795	5.75	0.979	> 1	0.597	0.122	0.811	3.44	0.555	365	0.957	> 10	0.788	5.55
D-247MG (glioma, adherent)	0.663	4.22	0.889	> 20	0.967	> 10	0.91	> 10	0.976	> 1	0.586	0.117	0.469	0.256	0.757	1860	0.961	> 10	0.646	1.89
KM12 (large intestine, adherent)	0.775	8.58	0.746	6.81	0.791	4.91	0.964	> 10	0.984	> 1	0.51	0.0668	0.871	> 5.12	0.768	1630	0.986	> 10	0.599	1.23
HCC1937 (breast, adherent)	0.759	8	0.948	> 20	0.928	> 10	0.932	> 10	0.983	> 1	0.674	0.207	0.985	> 5.12	0.672	815	0.974	> 10	0.885	> 10.2
22RV1 (prostate, adherent)	0.367	0.488	0.96	> 20	0.922	> 10	0.967	> 10	0.974	> 1	0.899	> 1	0.725	1.65	0.529		0.963	> 10	0.859	> 10.2
D-336MG (glioma, adherent)	0.494	1.2	0.946	> 20	0.89	> 10	0.951	> 10	0.947	> 1	0.451	0.0442	0.973	> 5.12	0.816	3050	0.979	> 10	0.743	3.96
JIMT-1 (breast, adherent)	0.661	3.63	0.964	> 20	0.93	> 10	0.911	> 10	0.981	> 1	0.483	0.0561	0.962	> 5.12	0.653	687	0.974	> 10	0.902	> 10.2
NCI-H226 (lung squamous cell carcinoma, adherent)	0.741	6.35	0.946	> 20	0.965	> 10	0.986	> 10	0.986	> 1	0.893	> 1	0.798	2.58	0.846	3150	0.987	> 10	0.812	5.83
SW620 (large intestine, adherent)	0.539	1.58	0.971	> 20	0.859	6.79	0.985	> 10	0.989	> 1	0.661	0.165	0.83	2.72	0.759	1250	0.99	> 10	0.741	2.84
